# Laboratory results taken from the supplement of paper PMC3334620.
# Whole data set: some 33,000 sequences, median “E-score (-0.5 to 0.5)” near -0.036, cut for the highest 2% near 0.37. This is one part of the list.
# Target: T1, Yer064c (UniProt P40041)
# T1 sequence: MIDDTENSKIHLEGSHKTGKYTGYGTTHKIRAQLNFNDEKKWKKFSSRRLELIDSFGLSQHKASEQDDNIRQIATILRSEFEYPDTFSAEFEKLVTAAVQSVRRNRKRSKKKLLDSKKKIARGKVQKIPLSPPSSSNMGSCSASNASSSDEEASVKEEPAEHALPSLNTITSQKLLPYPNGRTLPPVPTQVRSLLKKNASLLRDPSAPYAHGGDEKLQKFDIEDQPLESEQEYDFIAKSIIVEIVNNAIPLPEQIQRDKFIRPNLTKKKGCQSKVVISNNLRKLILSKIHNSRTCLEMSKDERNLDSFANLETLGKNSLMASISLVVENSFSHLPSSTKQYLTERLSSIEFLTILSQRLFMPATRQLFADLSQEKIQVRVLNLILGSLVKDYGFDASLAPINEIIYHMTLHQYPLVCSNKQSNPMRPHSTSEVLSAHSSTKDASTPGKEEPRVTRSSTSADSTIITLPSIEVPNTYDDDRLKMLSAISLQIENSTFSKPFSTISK
# Experiment: PBM E-score (8-mer binding enrichment) (E-score (-0.5 to 0.5)); higher = stronger / more preferred TF binding; most listed sequences are background and not binding sites
# Settings: protein concentration: 200 nM; construct: GST-full length
# Summary of the method: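 Masliner-normalised scans of fluorescent anti-GST signal were the basis for scoring. That signal came from GST-tagged yeast transcription factors applied at about 100-200 nM to double-stranded universal all-10-mer Agilent arrays on fresh or once-stripped slides. Each ungapped eight-base word, pooled with its reverse complement, received an E-score from the Universal PBM Analysis Suite.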
row,Sequence,PBM E-score
1,AGGACCAG,-0.218
2,ATCGTTGC,-0.0546
3,ATTGAACG,0.17
4,CTGGTAAA,0.0683
5,CTGTGTGC,0.0798
6,CACAGGAG,-0.0707
7,CTCGAACC,-0.233
8,CGTGCCCC,-0.266
9,CGCTACGA,0.00912
10,TAACAGTA,-0.019
11,CATTGTCG,0.0862
12,AACACAAA,0.0141
13,TCAAAGCA,0.0603
14,ACGTTACT,0.135
15,ACAGTCAA,0.319
16,AGAGTAAA,0.0996
17,GCGAGCTA,-0.116
18,GGACGCAA,-0.24
19,ATAGTAAC,0.0434
20,ATGCGTCC,-0.227
21,ACGCACGA,-0.017
22,CAGGCTAG,-0.137
23,ATAGTTCG,-0.0717
24,CTGTGAAA,-0.0469
25,AAATTCCT,-0.0529

row,Sequence,PBM E-score
1,CGTGTCAG,0.0286
2,CCTCCAGC,-0.233
3,ATATACAT,0.248
4,GAAACTAC,0.00139
5,CATTGTAG,0.0681
6,CTTGTTCC,-0.15
7,AGGTATTG,-0.0352
8,ACGACCTC,0.141
9,GAACACTA,0.0361
10,ATTGTTTA,0.158
11,GCACAGAA,-0.113
12,CATACCAA,0.0259
13,CTGCGTTC,-0.157
14,CCGGAGTA,0.0206
15,ACTGGGAC,0.0246
16,AGACGATC,-0.299
17,AACAACGT,-0.112
18,GCACAGCA,-0.0913
19,CCCGCGGG,-0.0605
20,ATCGTCTG,0.0228
21,GGACCGTA,-0.0438
22,ACGTGCCA,-0.209
23,GGCGGCCA,-0.204
24,ATATTCGG,-0.116
25,ATTTACGC,-0.0772

row,Sequence,PBM E-score
1,TATACTAA,0.149
2,GCTTGCTA,-0.312
3,AGTTGAGA,0.0944
4,CGCACACA,0.143
5,AAGTTTCA,0.0363
6,CGTCAGTC,0.291
7,GGCGCCAA,-0.352
8,ACCGACAG,-0.208
9,ACCGAGTC,0.377
10,ACTATATA,0.18
11,CCCGACCC,-0.207
12,CTGATAAA,0.157
13,GATAGCCA,0.112
14,AGGCCCAG,-0.281
15,CATGCTAC,-0.135
16,CCGTGCTC,-0.21
17,CCTCGTCC,-0.198
18,GGTATGAC,0.308
19,ATATGTTC,-0.139
20,CCTCTGAA,-0.0251
21,ATAATCAC,0.385
22,TTACAAAA,0.0752
23,GGCCCAGA,-0.391
24,AAGCCGAT,-0.0488
25,CCCCGGGA,-0.193

row,Sequence,PBM E-score
1,AGAAGATC,-0.32
2,CCTGCGGC,-0.405
3,AAACCACC,0.0204
4,ACTACCCA,0.135
5,AGCAACAT,-0.139
6,CCGAGCTC,-0.0589
7,CCAGTGCA,-0.0779
8,AGGTCATA,0.171
9,ACATAAAT,-0.0522
10,GGACTAAC,0.367
11,CAGTCGAG,-0.0393
12,GACCTGGA,-0.0618
13,AACCTCCT,-0.186
14,AAAGAATG,0.178
15,AGCCTAAC,-0.0685
16,GCCCCACC,-0.136
17,AGTGGCCC,-0.282
18,CAATCCGA,0.129
19,ACCAAAAC,-0.106
20,TAACACTA,0.18
21,ATGTCTCC,0.216
22,ACCGGGAG,-0.212
23,AGGACCGG,-0.187
24,GGACCGGA,-0.143
25,CTGGACGC,-0.15

row,Sequence,PBM E-score
1,CGTGAAGA,-0.0808
2,GAATATCA,-0.0168
3,CCTTCTTA,-0.0621
4,GGCAGCCA,0.0126
5,CACAACCG,-0.14
6,ATAAGATC,-0.0195
7,CAGATCCC,-0.247
8,ATGTGGAC,-0.0654
9,CTACTTGA,0.0304
10,ATGGACGA,0.0625
11,GCTCTAGA,0.0383
12,GTGGCGTA,-0.154
13,TCGACCAA,-0.188
14,TATTCCAA,-0.0766
15,CTGTTACC,-0.197
16,GCGTAGAC,-0.0194
17,ATGTTGTG,0.106
18,ACCGGCGC,0.0536
19,ACCGCCAA,0.107
20,CATTCTTA,0.0443
21,AGGAACTG,-0.137
22,ACTTCGAC,0.209
23,CGCCAAAA,-0.204
24,CTCTGATC,0.0053
25,ATCCAAGA,-0.0668

row,Sequence,PBM E-score
1,CATGCTGG,0.00618
2,ACTCCGCG,0.203
3,GTGGAATA,0.187
4,ACGACAGA,-0.17
5,GACGAGCA,0.0725
6,TGAGATAA,-0.0838
7,CCTTCGGA,0.017
8,CGCTCAGA,-0.0231
9,AACTGCCA,0.0158
10,AGCGCATA,-0.141
11,CTTAGGTC,0.0461
12,AGCATACG,-0.221
13,ATCCCACG,0.07
14,CCTATAGC,-0.178
15,ACGTCATA,0.104
16,GCCAGATA,-0.0789
17,CTAATATC,0.0994
18,CCGTCAGC,-0.272
19,ACCATCAA,0.0631
20,CTCACTAA,0.234
21,GCACAGTA,-0.0488
22,CGACTTTC,0.172
23,CATGGGAC,-0.145
24,AACGGTCA,-0.126
25,GCAGGGCC,-0.282

row,Sequence,PBM E-score
1,GGACGGAC,-0.104
2,GATGGCAA,-0.164
3,AGTCCTTG,0.331
4,AGTGCCCA,-0.189
5,CGCCGCTA,-0.281
6,TAAAGCTA,0.0682
7,GCAAGAAA,-0.161
8,ATCGTATC,-0.0124
9,CGCAAGAA,-0.147
10,CCGAGACG,-0.108
11,AACTGCCG,-0.143
12,AATACCGG,-0.229
13,ATCGTCAG,0.0383
14,ATCACTGA,0.22
15,CTACTGCA,-0.0611
16,CGCCTGTC,-0.224
17,CAGTCAGG,0.333
18,GAAATATA,0.0173
19,CAAGAGAG,-0.00176
20,AAGGCGTC,-0.181
21,TAGATACA,-0.055
22,ACCATGCC,0.0483
